From PubChem BioAssay AID360 (National Center for Advancing Translational Sciences (NCATS), 2006)
In all, about 48,000 compounds went through this assay and about 550 (1.1%) were called active. Roughly 4% stayed inconclusive and do not appear here. Cut-off read from the data, not from the text of the source: active = potency below about 15 µM; inconclusive = mostly about 16 µM to 33 µM; inactive = weaker than that. The list shows a part of the results.

Target: Lysosomal acid glucosylceramidase (Homo sapiens) (UniProt P04062)
Assay: Glucocerebrosidase;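 note: the screen sought inhibitors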
Settings: purified enzyme, resorufin glucoside fluorescence (screen aimed at inhibitors), 20 min
Method in brief: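 Normal human glucocerebrosidase (0.2 nM final) was assayed with resorufin β-D-glucopyranoside (30 uM final) in 50mM citric acid/KH2PO4, 10mM sodium taurocholate, 0.01% tween-20, pH 5.9. Compounds were titrated; fluorescence (Ex 548, Em 600) read after 20 min at RT.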
Potency is the fitted concentration of half-maximal effect.

Sequence of UniProt P04062 (P04062 whole entry, looked up): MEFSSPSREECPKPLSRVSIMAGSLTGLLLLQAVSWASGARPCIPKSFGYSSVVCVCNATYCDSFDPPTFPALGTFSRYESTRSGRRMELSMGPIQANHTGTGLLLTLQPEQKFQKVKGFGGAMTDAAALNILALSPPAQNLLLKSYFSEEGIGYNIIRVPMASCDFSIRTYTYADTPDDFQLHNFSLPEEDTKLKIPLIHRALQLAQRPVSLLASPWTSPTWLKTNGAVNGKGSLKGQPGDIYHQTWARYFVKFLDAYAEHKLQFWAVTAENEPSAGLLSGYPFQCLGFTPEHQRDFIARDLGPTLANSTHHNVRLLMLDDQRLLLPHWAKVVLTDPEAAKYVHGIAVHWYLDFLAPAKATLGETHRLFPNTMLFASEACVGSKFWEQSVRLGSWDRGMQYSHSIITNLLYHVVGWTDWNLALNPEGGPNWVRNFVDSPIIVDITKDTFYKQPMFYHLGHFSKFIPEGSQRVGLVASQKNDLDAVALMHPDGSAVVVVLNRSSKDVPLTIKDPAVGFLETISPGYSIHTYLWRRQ

Potency, inactive:
CC(=O)N1CCc2cc(S(=O)(=O)NC(CC(C)C)C(=O)Nc3cc(C)ccn3)ccc21 (centres undefined) > 76.9 µM, Cc1cc(S(=O)(=O)NC2CCCCC2)c(C)s1 > 76.9 µM, CCNc1nc(-c2ccc(Cl)cc2)cs1 > 76.9 µM, COCCn1c(COc2ccccc2)nnc1SCC(N)=O > 76.9 µM, CCc1c(C(=O)NCc2cnn(C)c2)csc1C > 76.9 µM, O=C(Cc1ccccc1)CC1(O)C(=O)Nc2ccccc21 (centres undefined) > 76.9 µM, CCOC(=O)Cn1c(=O)oc2cc(S(=O)(=O)Nc3cc(OCC)ccc3OCC)ccc21 > 76.9 µM, COC(=O)c1[nH]c2ccc(F)cc2c1NC(=O)C1=COCCO1 > 76.9 µM, CCN1C(=Nc2ccc(Cl)cc2)SC/C1=C\C(=O)OC > 76.9 µM, Cc1ccc(S(=O)(=O)c2n[nH]n3c2nc(=O)c2ccccc23)cc1 > 76.9 µM, Cc1nc2nc(C)c(CCC(=O)N3CCc4ccccc43)c(C)n2n1 > 76.9 µM, CC1CCCCN1C(=O)c1ccccc1NC(=O)c1ccco1 (centres undefined) > 76.9 µM, CSc1nc2sc3c(c2c(=O)n1C)CCC(C)C3 (centres undefined) > 76.9 µM, CCOC(=O)c1sc2nc(C)cc(C)c2c1NC(=O)c1ccco1 > 76.9 µM, O=S(=O)(Nc1ccc2c(c1)OCO2)c1ccc(Br)s1 > 76.9 µM, Cc1ccc(-n2nnnc2SCC(=O)N2c3ccccc3NC(=O)C2(C)C)cc1 > 76.9 µM, O=C(Cn1ncn2c(cc3ccccc32)c1=O)NCc1ccco1 > 76.9 µM, O=C(NCCOC(=O)c1ccc(S(=O)(=O)N2CCOCC2)cc1)c1cccnc1 > 76.9 µM, Cc1csc(N(C(=O)c2cccc(S(=O)(=O)N(C)C)c2)c2ccccc2)n1 > 76.9 µM, CC(=O)Nc1nc(SCCCc2ccccc2)n[nH]1 > 76.9 µM, Fc1ccc(NCc2cccnc2)cc1 > 76.9 µM, Cc1ccc(C2CC(C(F)(F)F)n3ncc(C(=O)NCc4ccco4)c3N2)cc1 (centres undefined) > 76.9 µM, CCOC(=O)N1CCC(NC(=O)C2CCC(Cn3c(=O)[nH]c4ccccc4c3=O)CC2)CC1 (centres undefined) > 76.9 µM, O=C(c1cc2c(s1)CCCCC2)N1CCN(c2ncccn2)CC1 > 76.9 µM, Cc1cc(NC(=O)c2cc3n(n2)C(C(F)(F)F)CC(c2ccco2)N3)n(-c2ccccc2)n1 (centres undefined) > 76.9 µM, COc1ccc(CNC(=O)CN(c2cccc(OC)c2)S(C)(=O)=O)cc1 > 76.9 µM, CCOC(=O)c1ccc(NC(=O)Nc2ccc(OC)c(OC)c2)cc1 > 76.9 µM, CCOC(=O)c1ccc(NCc2ccc3c(c2)OCO3)cc1 > 76.9 µM, CC1CCCCN1S(=O)(=O)c1ccc(C(=O)Nc2nnc(-c3ccccc3Cl)o2)cc1 (centres undefined) > 76.9 µM, Cc1ccc(-c2nnn(CC(=O)Nc3cccc4c3CCCC4)n2)o1 > 76.9 µM, CCCCOc1ccc(C(=O)O)cc1 > 76.9 µM, Cn1c(SCC(=O)OC2CCCCC2)nnc1-c1ccc(S(=O)(=O)N2CCCC2)cc1 > 76.9 µM, Cc1nc2cc(-c3cccc(Cl)c3)nn2c(N2CCN(C(=O)c3ccco3)CC2)c1C > 76.9 µM, Nc1cc(=O)[nH]c(SCc2nnc(-c3ccccc3)o2)n1 > 76.9 µM, CCC(=O)n1nc(-c2ccccc2)nc1NCc1ccccc1 > 76.9 µM, O=C(NC1CCCC1)c1c[nH]c2ccc(F)cc2c1=O > 76.9 µM, COc1ccc(OC)c(S(=O)(=O)N2CCC(C(=O)N3CCc4ccccc4C3)CC2)c1 > 76.9 µM, Cn1nnnc1SCc1cccc(CSc2nnnn2C)n1 > 76.9 µM, Cc1nc(NC(C)c2ccccc2)c2oc3ccccc3c2n1 (centres undefined) > 76.9 µM, COCCCn1c2nc3ccccc3nc2c2c(=O)n(Cc3ccc(Cl)cc3)c(C)nc21 > 76.9 µM, CCCCOc1cccc(C(=O)O)c1 > 76.9 µM, COc1cc(Cn2c(-c3nonc3N)nc3ccccc32)ccc1C > 76.9 µM, COC(=O)C1CCN(C(=O)CSc2nnc(-c3ccncc3)o2)CC1 > 76.9 µM, Nc1ncc(Br)cc1S(=O)(=O)NCCC(=O)N1CCN(c2ncccn2)CC1 > 76.9 µM, CCOc1ccc(N2C(=O)CC(n3nc(C)cc3C)C2=O)cc1 (centres undefined) > 76.9 µM, CCOC(=O)c1ccc(NC(=O)NCc2ccncc2)cc1 > 76.9 µM, CCN(CC)c1nc(C#N)nc(N(CC)CC)n1 > 76.9 µM, COCCNC(=O)Nc1ccc2c(c1)N(C)C(=O)CS2 > 76.9 µM, Cc1c(Cl)cccc1NC(=O)CCN1CCCCCC1 > 76.9 µM, O=c1c2cnn(-c3ccccc3Cl)c2ncn1Cc1cccnc1 > 76.9 µM, COc1ccc(Nc2nnc(Cc3ccccc3)c(=O)[nH]2)c(OC)c1 > 76.9 µM, COc1ccc(S(=O)(=O)N(CC(=O)NC2CC2)c2ccc(C)cc2)cc1OC > 76.9 µM, CC(CN1CCN(C)CC1)OC(=O)c1ccc(Cl)cc1 (centres undefined) > 76.9 µM, COc1ccc(Oc2coc3cc(OC(=O)N4CCOCC4)ccc3c2=O)cc1 > 76.9 µM, COc1ccccc1NC(=O)CCSc1nnnn1C > 76.9 µM, O=C(CCCNS(=O)(=O)c1cccs1)N1CCN(c2ccc(F)cc2)CC1 > 76.9 µM, OC1C=CSc2nc3ccccc3n21 (centres undefined) > 76.9 µM, CCCn1c(C)nc2c(c1=O)c1nc3ccccc3nc1n2CCc1ccccc1 > 76.9 µM, CC1CN(C(=O)c2cnn3c(C(F)F)cc(-c4ccccc4)nc23)CC(C)O1 (centres undefined) > 76.9 µM
